Experimental data from PubChem BioAssay AID1461 (National Center for Advancing Translational Sciences (NCATS), 2008).
Screen size: about 220,000 compounds; about 2,300 (1%) were called active. This list was built around the results that the source calls inconclusive (neither active nor inactive); the mix of calls is not that of the screen. Calls follow the shape of the dose curve; as a rule, active = well fitted inhibition curve with a large enough effect; inconclusive = small, poorly fitted or top-dose-only effect, or effect the other way; inactive = no such curve, though single readings can be large or run the other way. No potency is given beside an inconclusive call; the fits are too rough.

Each compound was assayed against Neuropeptide S receptor (Homo sapiens) (UniProt Q6W5P4) (assay: qHTS Assay for Antagonists of the Neuropeptide S Receptor: cAMP Signal Transduction). Details: CHO-NPSR cells, cAMP TR-FRET, antagonist mode; activity change, negative = inhibition: at 38.3 µM (top of the series) unless noted.
% is scaled to controls: 0 for no effect and ±100 for the full control effect; potency is read from the fitted curve at half-maximal effect; tags tell the direction and shape of the fitted curve.
Also: nearly all actives have a fitted effect of over 50% in size.

Sequence of UniProt Q6W5P4 (Q6W5P4 whole entry, looked up): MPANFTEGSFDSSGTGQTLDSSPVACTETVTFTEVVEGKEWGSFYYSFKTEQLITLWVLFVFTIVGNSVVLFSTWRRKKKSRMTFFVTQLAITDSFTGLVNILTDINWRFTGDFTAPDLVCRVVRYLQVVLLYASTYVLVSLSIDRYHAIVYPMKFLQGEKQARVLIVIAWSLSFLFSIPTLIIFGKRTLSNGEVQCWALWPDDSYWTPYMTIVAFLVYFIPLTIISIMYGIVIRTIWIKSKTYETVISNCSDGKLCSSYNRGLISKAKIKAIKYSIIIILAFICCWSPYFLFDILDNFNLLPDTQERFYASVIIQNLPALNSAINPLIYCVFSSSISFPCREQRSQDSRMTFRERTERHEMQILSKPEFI

SMILES | Potency | activity change, negative = inhibition
O=C(c1ccc(N2CCCCCC2)c([N+](=O)[O-])c1)N1CCC2(CC1)OCCO2 | inactive | 
C=CCN1C(=O)/C(=C/c2cccs2)C(=O)NC1=S | active: 12.6 µM | 
O=C(/C=C/c1ccc2c(c1)OCO2)c1c(O)n(CCc2ccccc2)c(=O)[nH]c1=O | inconclusive [inhibitor, single point] | 
CCOc1ccc(C2CC(c3c(O)n(C)c(=O)n(C)c3=O)=NN2)cc1 (configuration not stated) |  | inactive: -9.44% [at 7.67 µM]
CCOc1ccc(N2C(=O)/C(=C\c3cccs3)C(=O)NC2=S)cc1 | inconclusive [inhibitor, single point] | 
CCCOP(=O)(OCCC)C(Nc1ccc(C(C)C)cc1)c1ccc([N+](=O)[O-])cc1 (configuration not stated) | inconclusive [inhibitor, single point] | 
N/C(=N\N=C/c1ccc(-c2ccc(O)c(C(=O)O)c2)o1)N[N+](=O)[O-] | inactive | 
CCC1C(c2ccccc2)NC(c2ccccc2)CC1(O)c1ccc(F)cc1 (configuration not stated) | inconclusive [inhibitor, single point] | 
c1ccc(CCCN2CCN(CCOC(c3ccccc3)c3ccccc3)CC2)cc1 | active: 15.8 µM | 
O=C(OCc1ccc(Cl)c(Cl)c1)c1ccccn1 | inconclusive [activator, partial curve] | 
CCCn1c(C)c(C(=O)c2ccc3ccccc3c2)c2ccccc21 | inconclusive [inhibitor, partial curve] | 
COc1cccc(C(=O)C2CCCN(Cc3cccc(C)n3)C2)c1 (configuration not stated) | inconclusive [activator, single point] | 
Cc1c(CCN)ccc2c1[nH]c1ccccc12 | inconclusive [inhibitor, single point] | 
Cc1cccc(N2CCN(C(=O)C34CC5CC(CC(C5)C3)C4)CC2)c1C | inconclusive [inhibitor, single point] | 
CCc1n[nH]c(CCN)n1 |  | inactive: -13.1% [at 7.67 µM]
O=c1c(C=NCCN2CCNCC2)c(O)n(C2CCCCC2)c(=O)n1C1CCCCC1 | inactive | 
CCOC(=O)N1CCN(C(=O)c2ccc3c(=O)n(CCC4=CCCCC4)c(=S)[nH]c3c2)CC1 | inconclusive [inhibitor, partial curve] | 
O=C1NC(=O)N(c2ccccc2)C(=O)/C1=C/c1ccc2c(c1)Cc1ccccc1-2 | inactive | 
O=c1c(O)c(-c2ccc(O)c(O)c2)oc2cc(O)cc(O)c12 | inconclusive [inhibitor, full curve, poor fit] | 
O=c1c(C=Nc2cccnc2Cl)c(O)n(CCCCl)c(=O)n1C1CCCCC1 | active: 10 µM | 
COCCCNC(=O)c1c(NC(=O)c2ccccc2Cl)n(Cc2ccccc2)c2nc3ccccc3nc12 | inconclusive [inhibitor, single point] | 

SMILES | Potency | activity change, negative = inhibition
CCN1C(=O)NC(=O)/C(=C\c2ccc(N3CCOCC3)cc2OC)C1=O | inconclusive [inhibitor, single point] | 
NCC(CP(=O)(O)O)c1ccc(Cl)cc1 (configuration not stated) | inconclusive [activator, full curve, poor fit] | 
CCn1nc(-c2cccs2)nc2c(=O)n(C)c(=O)nc1-2 | active: 2.51 µM | 
COc1ccc(N(CC(=O)Nc2cccc(SC)c2)S(C)(=O)=O)cc1Cl | inconclusive [inhibitor, full curve] | 
COC1C(OC(=O)c2ccc(C)[nH]2)C(O)C(Oc2ccc3c(O)c(NC(=O)c4ccc(O)c(CC=C(C)C)c4)c(=O)oc3c2Cl)OC1(C)C (configuration not stated) | inconclusive [activator, partial curve] | 
C=C(CO)CC1CC(O)[C@]2(C)OC3CC4OC5C[C@]6(C)O[C@]7(C)CCC8OC9C[C@]%10(C)OC%11C(C)=CC(=O)OC%11CC%10OC9C[C@@H](C)C8OC7CC6O[C@]5(C)C/C=C\C4OC3CC2O1 (some centres not stated) | inconclusive [activator, partial curve] | 
CCN(CC)CCOC(=O)C(O)(c1ccccc1)c1ccccc1 | inactive | 
Cn1cccc1/C=C1/C(=O)NC(=S)N(Cc2ccc(F)cc2)C1=O | inconclusive [inhibitor, single point] | 
S=c1[nH]nc(-c2cccs2)n1C1CCCCC1 | inconclusive [activator, single point] | 
O=C(Cn1cc(C(=O)c2ccccc2F)c2ccccc21)NCc1ccco1 | inconclusive [activator, single point] | 
O=C(c1ccccc1)c1cn(CC(=O)N2CCCc3ccccc32)c2ccccc12 | active: 10 µM | 
CN(C)C(=O)Oc1cccc([N+](C)(C)C)c1 | inconclusive [inhibitor, single point] | 
O=C(Oc1c(Br)cc(Br)c2cccnc12)N1CCCCC1 | inconclusive [inhibitor, single point] | 
C[C@@H]1C[C@@H]2O[C@H]2/C=C\C=C\C(=O)Cc2c(Cl)c(O)cc(O)c2C(=O)O1 | inconclusive [activator, single point] | 
N#Cc1ccccc1Cn1cc(C(=O)c2cccs2)c2ccccc21 | inconclusive [inhibitor, partial curve, poor fit] | 
O=C(CNC(=O)OCc1ccccc1)Nc1ccc(Br)cc1C(=O)c1ccccc1Cl | inactive | 
COc1cc(/C=C/C(=O)c2c(O)n(CCc3ccccc3)c(=O)[nH]c2=O)ccc1O | active: 10 µM | 
CCC(C)N1C(=O)/C(=C\c2cnc(N(C)C)nc2)C(=O)NC1=S (configuration not stated) | inconclusive [inhibitor, single point] | 
O=C(CN1CCN(S(=O)(=O)c2ccc3ccccc3c2)CC1)NC(=O)NC1CCCCC1 | inconclusive [inhibitor, single point] | 
O=C(Cn1ncc2ccccc21)N1CCC2(CC1)OCCO2 | inconclusive [inhibitor, single point] | 
CN1C(=O)/C(=C/c2cccn2-c2ccc3ccccc3c2)C(=O)NC1=S | inconclusive [inhibitor, single point] | 
